Source: the supplement of paper PMC10126150
Values marked as one replicate rest on one cluster of the flow cell; about a third of the high ones do not repeat.

The sequences below were run on ATP (assay: switch fluorescence ratio, 500 uM ATP over buffer (Cy3 cluster intensity, sum of 5 cycles each) (fold (ratio)); higher = stronger signal-on switching upon ATP binding; sequences stand for … in TCGTCGGCAGCGTCAGATGTGTATAAGAGACAGTTTTTTTTTTTTTTTTTTTTTTTTT…TC). Details: aptamer strand: ATP DNA aptamer (quencher-CACCTGGGGGAGTATTGCGGAGGAAGG + anchor), 100 nM annealed; ATP concentration: 500 uM; one replicate.
Method in brief: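 Exposure to 500 uM ATP lasted 15 min at 22 °C before imaging, and a selection-buffer image was taken beforehand, for Cy3-labelled switching-strand clusters on a modified Illumina MiSeq flow-cell annealed to 100 nM quencher-labelled ATP aptamer. Five buffer/ATP cycles were run with NaOH stripping and re-annealing between them. The fluorescence ratio per cluster is summed target-cycle over summed buffer-cycle Cy3 intensity, averaged per switch-domain sequence. Clusters outside 100-1000 RFU were excluded.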

Sequence | switch fluorescence ratio
CAAATTGGTA | 0.996
CAACACATAT | 1.02
CAACAGGAAG | 0.988
CAACATATCA | 1.02
CAACATTAGA | 1.02
CAACCGATCT | 1.03
CAACCTCGCC | 1.76
CAACCTTTAA | 0.993
CAACGAGGGA | 1.01
CAACGCTGTA | 1.05
CAACGTAAGT | 1.02
CAACTTGTTA | 0.981
CAAGACTTAG | 1.04
CAAGAGCCTG | 0.961
CAAGAGCTTC | 1.09
CAAGAGGAAC | 0.995
CAAGAGGGA | 0.982
CAAGAGTTGT | 0.96
CAAGATCTGC | 0.956
CAAGATTAAG | 0.975
CAAGCATCCA | 1.01
CAAGCCCAAG | 1.01
CAAGCGATGT | 1.09
CAAGCGGTTT | 0.955
CAAGCTGCGC | 0.944
CAAGCTTTCA | 1.04

Sequence | switch fluorescence ratio
CAAGGACGAC | 1.1
CAAGGAGGTC | 1.01
CAAGGATACG | 1.02
CAAGGCTGAT | 1.02
CAAGGGACTC | 1.01
CAAGGGCTCA | 1.03
CAAGGGTGAT | 1.01
CAAGGGTTTT | 0.984
CAAGGTATAC | 1.18
CAAGTAAAAT | 1.02
CAAGTAGAT | 1
CAAGTAGCAA | 1.94
CAAGTTAGGT | 0.971
CAATAAACGG | 1.01
CAATAAGAAG | 0.947
CAATACCTGT | 1.02
CAATACGGAT | 1.05
CAATACGTCG | 1.11
CAATACTGGT | 1.04
CAATATAATT | 1.03
CAATATTGGC | 1.05
CAATCAGATG | 1.04
CAATCAGGAA | 1.07
CAATCGCCTC | 1.12
CAATCTAGAG | 1.02
CAATCTTATA | 0.971

Sequence | switch fluorescence ratio
CAATGAGCAA | 1.86
CAATGCAACG | 1.02
CAATGCAGTT | 1.03
CAATGCATGT | 1.02
CAATGGATCA | 1.26
CAATGGCGC | 1.03
CAATTAAAG | 0.995
CAATTACCAT | 1
CAATTACTT | 1.09
CAATTAGATC | 1.01
CAATTAGCTG | 0.95
CAATTCGGGC | 1.01
CAATTCTAAT | 1.02
CAATTCTACG | 1.05
CAATTGGAGT | 0.992
CAATTGGGAT | 1.02
CAATTTAGG | 0.968
CAATTTCCGT | 0.988
CAATTTGCCA | 0.932
CAATTTTTGA | 0.982
CAATTTTTTA | 0.996
CACAAAACAA | 1.01
CACAAACCGT | 1.17
CACAAATCA | 0.976
CACAATACC | 2.13
CACAATGGGT | 1.04

Sequence | switch fluorescence ratio
CACACGCC | 1.08
CACACTCGGG | 1.02
CACACTTTGA | 1.06
CACAGAGTGC | 1.11
CACAGATGTC | 0.928
CACAGCGGA | 1.01
CACAGCTAGG | 1.03
CACAGGCGGG | 1.01
CACAGTAGTG | 1.04
CACAGTGAGG | 0.962
CACAGTGTCG | 1
CACAGTGTGT | 1.06
CACATAAGAC | 1.09
CACATAAGCC | 1.05
CACATACTTC | 1.34
CACATGATAG | 1.04
CACATGATAT | 1.02
CACATGCACT | 1.13
CACATTGTGT | 1.06
CACATTTCCG | 1.11
CACCAACGGG | 1.15
CACCAAGGGT | 0.984
CACCAGCACG | 1.16
CACCCGCGCG | 1.01
CACCCGGGAG | 0.944
CACCCTGTCT | 1.05

Sequence | switch fluorescence ratio
CACCCTTATG | 0.989
CACCGGTTGA | 1.03
CACCTGGGTA | 1
CACCTGTATT | 1.01
CACCTTACAT | 1.24
CACCTTGGTA | 0.984
CACGACAAGG | 0.99
CACGACAGTC | 1.07
CACGACTCTG | 0.987
CACGAGACAG | 1.04
CACGAGCGGT | 1.1
CACGATTTTA | 0.968
CACGCACACC | 1.51
CACGCGACGG | 1.39
CACGCTACGC | 1.56
CACGGAAATT | 1.05
CACGGAACAA | 1.31
CACGGAACT | 1.14
CACGGACTTC | 1.28
CACGGAGGCA | 1.02
CACGGGATAT | 1.16
CACGGGATG | 1.03
CACGGGTACT | 1.24
CACGGTATAG | 1.19
CACGGTATGG | 1.11
CACGGTTGC | 0.977

Sequence | switch fluorescence ratio
CACGTACTCT | 1.54
CACGTGCCTG | 1.04
CACGTGGAAC | 1.04
CACGTGGGGC | 1.01
CACGTTATCG | 1.02
CACGTTGGAC | 1.23
CACGTTGGGG | 1.01
CACGTTTATT | 0.986
CACTAAAGT | 0.996
CACTACTTCA | 1.1
CACTATGATA | 1.02
CACTATGGTC | 0.925
CACTCACGCC | 1.49
CACTCAGCGT | 1.14
CACTCCCCCT | 3.03
CACTCGGTTT | 1.11
CACTCGTTC | 1.02
CACTCTATT | 1.09
CACTCTCGGT | 1.03
CACTGCCAAC | 1.29
CACTGGTACA | 1.17
CACTGGTAGC | 1.06
CACTGTCCTG | 1.04
CACTTAAAGC | 1
CACTTATCTG | 0.984
CACTTCATCT | 1.02

Sequence | switch fluorescence ratio
CACTTTTCAT | 1.04
CACTTTTTAA | 0.989
CAGAAAATAG | 1.06
CAGAAACTTG | 0.883
CAGAAAGATG | 1.5
CAGAACAAGG | 0.994
CAGAAGGCTT | 0.963
CAGAAGGTTG | 0.97
CAGAAGTAGC | 1.03
CAGAATATAC | 1.48
CAGAATCCC | 1.03
CAGAATGACT | 0.986
CAGAATGTAT | 0.973
CAGACACTCC | 1.19
CAGACAGGGT | 1.01
CAGACCCGAG | 0.972
CAGACGGAC | 1.49
CAGACGGTTC | 1.09
CAGACGTGCC | 1.03
CAGACTTTGT | 1.03
CAGAGAAAAG | 0.973
CAGAGAGATT | 1.01
CAGAGAGTAT | 1.01
CAGAGCAATG | 3.19
CAGAGCAGAT | 1.58
CAGAGGCAAG | 1.98

Sequence | switch fluorescence ratio
CAGAGTCCC | 0.952
CAGAGTGACT | 1.03
CAGATAGCG | 0.995
CAGATTCCG | 1.03
CAGATTGAGT | 1.01
CAGCAACTTA | 1.1
CAGCAAGCTG | 1.05
CAGCAGCCCT | 1.16
CAGCCCGTG | 0.991
CAGCCCTGAC | 1.39
CAGCCTATGT | 0.937
CAGCGACTG | 1
CAGCGAGCAG | 0.999
CAGCGCTGA | 1.04
CAGCGGGGC | 1.09
CAGCGTAGTC | 1.07
CAGCGTCCTA | 0.993
CAGCGTCCTG | 1.01
CAGCGTTACA | 1.02
